# In the antibiotic and cytotoxicity screens of Wong et al. (2023):
# The other results are listed elsewhere or left out.
# System: HSkMC (human skeletal muscle cells)
# Test: cytotoxicity call (relative viability < 0.9)
# Details: 10 µM
row,SMILES,cytotoxicity call
1,C[C@@H]1CN([C@H](C)CO)C(=O)c2cccc(NC(=O)c3cnccn3)c2O[C@H]1CN(C)S(C)(=O)=O,inactive
2,Cc1noc(C)c1NC(=O)N(C)C[C@H]1Oc2ccc(NC(=O)Cn3cnnn3)cc2CC(=O)N([C@@H](C)CO)C[C@@H]1C,inactive
3,CN(C)/C=N/[C@@H]1N=C(C2CC2)N(C)C(=O)N1,inactive
4,COc1ccc(CN(C)C[C@@H]2Oc3ccc(NC(=O)Cn4cnnn4)cc3C(=O)N([C@H](C)CO)C[C@@H]2C)cc1,inactive
5,C[C@@H]1CCCCO[C@@H](CN(C)Cc2ccncc2)[C@H](C)CN([C@@H](C)CO)C(=O)c2cc(NC(=O)CCC(F)(F)F)ccc2O1,inactive
6,C[C@@H]1CN([C@@H](C)CO)C(=O)Cc2cc(NS(=O)(=O)c3ccc(F)cc3)ccc2O[C@@H]1CN(C)S(C)(=O)=O,inactive
7,CCCN(C)C[C@@H]1OCCCC[C@H](C)Oc2ccc(NC(=O)C3CCCCC3)cc2C(=O)N([C@@H](C)CO)C[C@@H]1C,inactive
8,CNC(=O)c1c(O)c2ccccc2[nH]c1=O,inactive
9,O=C1C[C@@H](O)[C@@H](O)c2c(O)cccc21,inactive
10,COc1ccc(NC(=O)Nc2ccc3c(c2)C(=O)N([C@@H](C)CO)C[C@H](C)[C@@H](CN(C)Cc2ccncc2)OCCCC[C@H](C)O3)cc1,inactive
11,CS(=O)(=O)N1[C@@H]2Cn3c(ccc(C4=CCCCC4)c3=O)[C@H]1[C@@H](C(=O)N1CCOCC1)[C@@H]2CO,inactive
12,COc1ccc(S(=O)(=O)N(C)C[C@@H]2OCc3cn(nn3)CCCC(=O)N([C@H](C)CO)C[C@H]2C)cc1,inactive
13,COc1ccc(NC(=O)N(C)C[C@@H]2Oc3ccc(NC(=O)Nc4ccc(C(F)(F)F)cc4)cc3C(=O)N([C@@H](C)CO)C[C@H]2C)cc1,inactive
14,Cc1ccc(S(=O)(=O)N(C)C[C@H]2Oc3c(NC(=O)Nc4ccc(C(F)(F)F)cc4)cccc3C(=O)N([C@H](C)CO)C[C@H]2C)cc1,active
15,Cc1noc(C)c1S(=O)(=O)Nc1ccc2c(c1)C(=O)N([C@@H](C)CO)C[C@@H](C)[C@H](CN(C)Cc1ccc(Oc3ccccc3)cc1)O2,inactive
16,CO[C@@H]1CN(C)C(=O)c2cc(NC(=O)C3CC3)ccc2OC[C@@H](C)N(C(=O)CN2CCOCC2)C[C@H]1C,inactive
17,Cc1ccc(S(=O)(=O)Nc2cccc3c2O[C@@H](CN(C)CC2CC2)[C@H](C)CN([C@H](C)CO)C3=O)cc1,inactive
18,COCN(C#N)c1nc(N(C)C)nc(N(C)C)n1,inactive
19,C[C@@H]1CN([C@@H](C)CO)C(=O)c2cccc(NS(C)(=O)=O)c2O[C@H]1CN(C)S(=O)(=O)c1ccc(Cl)cc1,inactive
20,C[C@H](CO)N1C[C@H](C)[C@H](CN(C)C(=O)Nc2ccc(F)cc2)Oc2ccc(NC(=O)CCN3CCOCC3)cc2C1=O,inactive

row,SMILES,cytotoxicity call
1,C[C@@H]1CN([C@@H](C)CO)C(=O)Cc2cc(NC(=O)NC3CCCCC3)ccc2O[C@H]1CN(C)S(C)(=O)=O,inactive
2,C[C@H](CO)N1C[C@H](C)[C@@H](CN(C)C(=O)NC2CCCCC2)Oc2ccc(NC(=O)Nc3ccc(C(F)(F)F)cc3)cc2C1=O,inactive
3,C[C@H]1CN([C@@H](C)CO)C(=O)c2cc(NC(=O)Nc3cccc4ccccc34)ccc2O[C@@H]1CN(C)C(=O)Nc1cccc2ccccc12,inactive
4,C[C@H](CO)N1C[C@H](C)[C@@H](CN(C)CC2CCCCC2)Oc2ccc(NS(=O)(=O)c3cn(C)cn3)cc2C1=O,inactive
5,CC(C)NC(=O)Nc1ccc2c(c1)C(=O)N([C@H](C)CO)C[C@H](C)[C@H](CN(C)S(=O)(=O)c1cccs1)O2,inactive
6,C[C@H]1CCCCO[C@@H](CN(C)Cc2ccc(C(F)(F)F)cc2)[C@@H](C)CN([C@@H](C)CO)C(=O)c2cc(NC(=O)Nc3cccc4ccccc34)ccc2O1,inactive
7,CCCN(C)C[C@@H]1Oc2cc(C#Cc3ccc(OC)cc3)ccc2S(=O)(=O)N([C@@H](C)CO)C[C@@H]1C,inactive
8,CO[C@H]1CN(C)C(=O)c2cc(NC(=O)Nc3ccc(Cl)cc3)ccc2OC[C@H](C)N(C(=O)Nc2c(C)noc2C)C[C@H]1C,inactive
9,Cn1cnc(CN)c1,inactive
10,CC(C)CC#Cc1ccc2c(c1)O[C@H](CN(C)S(=O)(=O)c1cccc(F)c1)[C@H](C)CN([C@H](C)CO)S2(=O)=O,inactive
11,CC(C)NC(=O)Nc1ccc2c(c1)C(=O)N([C@H](C)CO)C[C@@H](C)[C@@H](CN(C)S(=O)(=O)c1ccccc1)O2,inactive
12,Cc1ccccc1S(=O)(=O)N1C[C@@H](O)COC[C@H]2O[C@H](CC(=O)NCc3ccc(Cl)c(Cl)c3)CC[C@@H]21,inactive
13,NCC[C@H]1CC[C@H](NC(=O)Cc2ccncc2)[C@H](CO)O1,inactive
14,CN1CCN2CCN(C(=O)c3cccc(N)c3)C[C@@H]2C1=O,inactive
15,O=C(O)C12C3CCC4C5C3C1C5(C(=O)O)C42 (stereo not given),inactive
16,C[C@H](CO)N1C[C@H](C)[C@H](CN(C)Cc2ccccn2)Oc2cc(C#CCN(C)C)ccc2S1(=O)=O,inactive
17,C/C=C/c1cnc2c(c1)C(=O)N([C@@H](C)CO)C[C@@H](C)[C@@H](CN(C)S(=O)(=O)c1ccc(OC)cc1)O2,inactive
18,CN(c1ncccc1CNc1nc(Nc2ccc3c(c2)CC(=O)N3)ncc1C(F)(F)F)S(C)(=O)=O,active
19,C[C@@H]1CN([C@H](C)CO)S(=O)(=O)c2ccc(C#CC3(O)CCCC3)cc2O[C@@H]1CN(C)C(=O)Nc1ccc(F)cc1,inactive
20,C[C@H]1CN([C@@H](C)CO)C(=O)Cc2cc(NC(=O)Cn3cnnn3)ccc2O[C@@H]1CN(C)Cc1ccccc1,inactive
